5 molecules from publication PMC5226500 can be followed below.

The chains behind the UniProt entries cited, without tags or fusion partners.
UniProt P60953: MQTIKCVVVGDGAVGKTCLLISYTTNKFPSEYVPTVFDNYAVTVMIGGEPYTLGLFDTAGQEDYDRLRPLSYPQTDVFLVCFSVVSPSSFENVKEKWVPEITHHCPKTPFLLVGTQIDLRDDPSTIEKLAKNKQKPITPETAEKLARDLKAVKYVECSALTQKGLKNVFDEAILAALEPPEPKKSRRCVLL

Residue numbers refer to the chain shown, from its start. Names and notes keep the numbering of the source. No constants are given. Whether binding was seen depends on the method and setting. Binding seen in cells or lysates may run through a third protein. Some binding calls cover weakened binding; strength is not graded here. Where a sequence is shown, tags or fusion partners need not be part of it.

B1: Myc-Mig-6(M26A/R30A) (protein, UniProt Q9UJM3 1-462)
chain: MSIAGVAAQEIRVPLKTGFLHNGRAAGNMAKTYWSSRSEFKNNFLNIDPITMAYSLNSSAQERLIPLGHASKSAPMNGHCFAENGPSQKSSLPPLLIPPSENLGPHEEDQVVCGFKKLTVNGVCASTPPLTPIKNSPSLFPCAPLCERGSRPLPPLPISEALSLDDTDCEVEFLTSSDTDFLLEDSTLSDFKYDVPGRRSFRGCGQINYAYFDTPAVSAADLSYVSDQNGGVPDPNPPPPQTHRRLRRSHSGPAGSFNKPAIRISNCCIHRASPNSDEDKPEVPPRVPIPPRPVKPDYRRWSAEVTSSTYSDEDRPPKVPPREPLSPSNSRTPSPKSLPSYLNGVMPPTQSFAPDPKYVSSKALQRQNSEGSASKVPCILPIIENGKKVSSTHYYLLPERPPYLDKYEKFFREAEETNGGAQIQPLPADCGISSATEKPDSKTKMDLGGHVKRKHLSYVVSP
B2: Myc-Mig-6(4A) [I11A/R12A/M26A/R30A] (protein, UniProt Q9UJM3 1-462)
chain: B1 chain with I11A, R12A
B3: Myc-Mig-6-Δ30 (domain or fragment, UniProt Q9UJM3 31-462)
chain: KTYWSSRSEFKNNFLNIDPITMAYSLNSSAQERLIPLGHASKSAPMNGHCFAENGPSQKSSLPPLLIPPSENLGPHEEDQVVCGFKKLTVNGVCASTPPLTPIKNSPSLFPCAPLCERGSRPLPPLPISEALSLDDTDCEVEFLTSSDTDFLLEDSTLSDFKYDVPGRRSFRGCGQINYAYFDTPAVSAADLSYVSDQNGGVPDPNPPPPQTHRRLRRSHSGPAGSFNKPAIRISNCCIHRASPNSDEDKPEVPPRVPIPPRPVKPDYRRWSAEVTSSTYSDEDRPPKVPPREPLSPSNSRTPSPKSLPSYLNGVMPPTQSFAPDPKYVSSKALQRQNSEGSASKVPCILPIIENGKKVSSTHYYLLPERPPYLDKYEKFFREAEETNGGAQIQPLPADCGISSATEKPDSKTKMDLGGHVKRKHLSYVVSP
B4: Myc-Mig-6-Δ38 (domain or fragment, UniProt Q9UJM3 39-462)
chain: EFKNNFLNIDPITMAYSLNSSAQERLIPLGHASKSAPMNGHCFAENGPSQKSSLPPLLIPPSENLGPHEEDQVVCGFKKLTVNGVCASTPPLTPIKNSPSLFPCAPLCERGSRPLPPLPISEALSLDDTDCEVEFLTSSDTDFLLEDSTLSDFKYDVPGRRSFRGCGQINYAYFDTPAVSAADLSYVSDQNGGVPDPNPPPPQTHRRLRRSHSGPAGSFNKPAIRISNCCIHRASPNSDEDKPEVPPRVPIPPRPVKPDYRRWSAEVTSSTYSDEDRPPKVPPREPLSPSNSRTPSPKSLPSYLNGVMPPTQSFAPDPKYVSSKALQRQNSEGSASKVPCILPIIENGKKVSSTHYYLLPERPPYLDKYEKFFREAEETNGGAQIQPLPADCGISSATEKPDSKTKMDLGGHVKRKHLSYVVSP
B5: Myc-Mig-6-Δ10 (domain or fragment, UniProt Q9UJM3 11-462)
chain: IRVPLKTGFLHNGRAMGNMRKTYWSSRSEFKNNFLNIDPITMAYSLNSSAQERLIPLGHASKSAPMNGHCFAENGPSQKSSLPPLLIPPSENLGPHEEDQVVCGFKKLTVNGVCASTPPLTPIKNSPSLFPCAPLCERGSRPLPPLPISEALSLDDTDCEVEFLTSSDTDFLLEDSTLSDFKYDVPGRRSFRGCGQINYAYFDTPAVSAADLSYVSDQNGGVPDPNPPPPQTHRRLRRSHSGPAGSFNKPAIRISNCCIHRASPNSDEDKPEVPPRVPIPPRPVKPDYRRWSAEVTSSTYSDEDRPPKVPPREPLSPSNSRTPSPKSLPSYLNGVMPPTQSFAPDPKYVSSKALQRQNSEGSASKVPCILPIIENGKKVSSTHYYLLPERPPYLDKYEKFFREAEETNGGAQIQPLPADCGISSATEKPDSKTKMDLGGHVKRKHLSYVVSP

The target of the assay is HA-tagged Cdc42 (UniProt P60953). Nature of the assay: co-IP; 293T cells co-transfected with HA-Cdc42 and Myc-Mig-6 (wild type or mutant); lysed in EBC150 (150 mM NaCl, 0.5% NP-40, pH 8.0), precleared with mouse IgG-agarose, anti-HA agarose 3 h at 4°C, washed with PBS; blot for Myc or Cdc42.
With B1, the binding result is “binds”.
Consider B2, for which the binding result was “no binding”.
B3: the binding entry is “no binding”.
For B4 the value was “no binding”.
For the molecule B5, the binding result is recorded as “binds”.
